# Assay results taken from PubChem BioAssay AID588549 (Broad Institute, 2011).
# In all, about 360,000 compounds went through this assay and about 780 (0.22%) were called active. The shares of active, inactive and inconclusive entries below differ from those in the screen. Rule as the data show it: active = inhibition above about 8.5% (passing the limit was not always enough); inconclusive = no clear call, values can overlap the other calls.
# System: Mycobacterium tuberculosis FadD28 fatty-acid-AMP ligase
# Experiment: inhibitors of FadD28 bisubstrate probe binding, primary screen, biochemical, fluorescence polarization, single point (AID 588549)
# Settings: at 12.5 µM, stronger effect = higher value
row,SMILES,inhibition
1,CCN(CC)C(=O)C1c2ccccc2Oc2ccccc21,inactive: -1.24%
2,N#C/C(=C\c1ccc(O)c(O)c1)C(=O)Nc1ccccc1,inconclusive: 10.3%
3,CC(C)/C=N/Nc1nc2c(c(=O)n(C)c(=O)n2C)n1C,inactive: -3.77%
4,O=C1NC(=O)C(c2ccccc2[N+](=O)[O-])=C1Nc1ccc(O)c(Cl)c1,inconclusive: 7.98%
5,O=C(COC(=O)c1cccs1)Nc1cccc(S(=O)(=O)N2CCOCC2)c1,inconclusive: 5.32%
6,O=[N+]([O-])c1cc(S(=O)(=O)Nc2cccc(C(F)(F)F)c2)ccc1-n1nnc2ccccc21,inconclusive: 7.38%
7,CC(=O)Nc1ccc(Nc2nc3ccccc3nc2NS(=O)(=O)c2ccc(Cl)c([N+](=O)[O-])c2)cc1,inconclusive: 10.4%
8,COc1cc2cncc(Cc3ccc(Cl)cc3)c2cc1OC,inconclusive: 25.4%
9,O=C(Nc1ccc(Cc2ccncc2)cc1)C1CCC(N2C(=O)C3C4C=CC(C4)C3C2=O)CC1 (centres undefined),inconclusive: 21.7%
10,N#Cc1c(C#N)c(-c2ccccc2)n(-c2ccc(C(=O)O)cc2)c1N,active: 12.2%
11,N/C(=N\OC(=O)COc1ccc2ccccc2c1)c1ccncc1,inconclusive: 5.49%
12,O=C(NCCc1c[nH]c2ccccc12)/C(=C/c1ccco1)NC(=O)c1ccco1,inconclusive: 5.8%
13,COC(=O)c1c[nH]c(=O)c2ccccc12,inactive: -2.39%
14,CC(NC(=O)/C(C#N)=C/c1ccc(OCC(=O)O)cc1)c1ccccc1 (centres undefined),inactive: -2.63%
15,Cc1ccc(OCC(=O)Nc2ccncc2)cc1,inconclusive: 4.08%
16,O=C(Nc1ccc(Br)c2ccccc12)c1ccc2ccccc2c1O,inactive: -3.25%
17,O=C(O)c1ccc(N2CC3CC(C2)c2cccc(=O)n2C3)c(NS(=O)(=O)c2cccc(C(F)(F)F)c2)c1 (centres undefined),inconclusive: 7.66%
18,Cc1nn(-c2ccccc2)c(Cl)c1/C=N/NC(=O)c1cccnc1,inconclusive: 9.04%
19,COc1ccc(CCNC(=O)c2ccc(CNS(=O)(=O)c3cccc(Cl)c3)cc2)cc1OC,inconclusive: -0.562%
20,Cc1cc(C)n(CCN(C)C(=O)CCc2nnc(-c3ccc4c(c3)OCO4)o2)n1,inconclusive: 3.18%
21,CC(C)CNS(=O)(=O)c1ccc(CCC(=O)NC2CCCC2)cc1,inactive: -0.526%
22,O=C(COc1ncnc2c1cnn2-c1ccccc1)Nc1ccc(S(=O)(=O)N2CCCCC2)cc1,inconclusive: 10.1%
23,N=c1c2c(-c3ccccc3)c(-c3ccccc3)n(Cc3ccco3)c2ncn1CCCN1CCOCC1,active: 8.82%
24,COC(=O)c1ccc(Cl)c(NS(=O)(=O)c2ccc3c(c2)OCCO3)c1,inconclusive: 6.08%
25,Cc1cc(C)n(CCC(=O)N/N=C/c2ccccc2O)n1,inactive: -0.247%
26,OC1(c2ccccc2)c2ccccc2-c2ncccc21 (centres undefined),inconclusive: 4.44%
27,O=C(O)c1cc2ccccc2cc1Nc1ccccc1,inconclusive: 5.88%

row,SMILES,inhibition
1,COc1ccc(C(=O)N/N=C2\SCC(=O)N2Cc2ccc3c(c2)OCO3)c(OC)c1,inconclusive: 5.25%
2,Cc1cccc(N=C2NC(=O)/C(=C/C=C/c3ccco3)S2)c1C,active: 11.2%
3,O=C(O)C(Cc1ccccc1)N1C(=O)/C(=C/C=C/c2ccco2)SC1=S (centres undefined),active: 39.3%
4,CC(=O)Nc1ccc(S(=O)(=O)Nc2cccc(-c3csc(C)n3)c2)cc1,inactive: -2.09%
5,CCCn1nc([N+](=O)[O-])c(C(C#N)c2nc3ccccc3s2)c(Cl)c1=O (centres undefined),active: 25.7%
6,COc1ccc2c(c1OC)C(=O)N1C2SC(C)(C)[C@H]1C(=O)NCCCOC(C)C (some centres undefined),inconclusive: 2.36%
7,Oc1ccc(C[C@H]2CNC(=S)N2CC2CCCN2C[C@H](Cc2ccccc2)N2C[C@H](Cc3ccc(O)cc3)N(CCc3ccccc3)C2=S)cc1 (some centres undefined),inactive: -1.39%
8,Oc1ccc(N=Cc2ccc(O)c(O)c2)cc1,inconclusive: 8.14%
9,COc1cccc(NC(=O)CC(=O)c2ccc([N+](=O)[O-])cc2)c1,inconclusive: 8.83%
10,CCOC(=O)c1[nH]nc2c1C(=O)N(CC)C2=O,inconclusive: 2.62%
11,CCOc1ccc(-n2c(O)c(/C=N/Nc3nnc(C)c(=O)[nH]3)c3ccccc3c2=O)cc1,inconclusive: 3.83%
12,O=C1NC(=O)N(c2ccccc2)C(=O)/C1=C/c1ccc([N+](=O)[O-])s1,active: 25.4%
13,CCCCn1c(=O)[nH]c(=O)c2c1nc(-c1ccsc1)n2Cc1ccccc1,inactive: -0.604%
14,Cc1ccc(S(=O)(=O)NCC(=O)OCC(=O)N2CCN(C(=O)c3ccco3)CC2)cc1C,inconclusive: 5.23%
15,Cc1ccc(C)n1Cc1ccc(C(=O)O)cc1,inconclusive: 6.13%
16,COc1ccc(CNc2oc(C)nc2C#N)cc1,inactive: -3.51%
17,Cc1ccc(S(=O)(=O)N(C)C[C@@H]2Oc3ncc(C#CCC(C)C)cc3C(=O)N([C@H](C)CO)C[C@H]2C)cc1,inactive: -0.798%
18,CC(Oc1ccc(F)cc1)C(O)CCN(C)C (centres undefined),inactive: -0.363%
19,Cc1noc(C)c1C(=O)NCc1ccccc1Br,inconclusive: 3.67%
20,O=C1CCCC2=C1C(c1ccc(Cl)cc1)C1C(=O)c3ccccc3C1=N2 (centres undefined),inconclusive: 5.52%
21,CCC1(C)NC(C(=O)O)Cc2c1[nH]c1ccccc21 (centres undefined),inactive: -2.37%
22,CCCCNC(=O)c1ccc2nc(-c3ccco3)c(-c3ccco3)nc2c1,inconclusive: 6.53%
23,O=C1C2CC=CCC2C(=O)N1c1ccc(NCCc2ccc(O)cc2)c([N+](=O)[O-])c1 (centres undefined),inconclusive: 5.54%
24,O=C(c1ccc2nc(Cc3cccc(Cl)c3)oc2c1)N1CCC(O)CC1,inconclusive: 3.59%
25,CCCCCCCCCCCCCCCC(=O)OC/C=C(C)/C=C/C=C(C)/C=C/C1=C(C)CCCC1(C)C,inconclusive: 7.03%
26,CCNC(=S)N1CCN(CC(=O)Nc2ccc(Br)cc2)CC1,inconclusive: 4.64%
27,COc1cc(/C=C2\SC(=O)N(Cc3ccc(Cl)cc3)C2=O)cc([N+](=O)[O-])c1O,active: 24.2%
